Laboratory results from the supplement of paper PMC3334620.
The full ranking holds about 33,000 sequences; the median of “E-score (-0.5 to 0.5)” is about -0.056, and the highest 2% start at about 0.38. Some of the results follow.

Target: Stb4 (UniProt P50104)
Test: PBM E-score (8-mer binding enrichment) (E-score (-0.5 to 0.5)); higher = stronger / more preferred TF binding; most listed sequences are background and not binding sites
Conditions: protein concentration: 200 nM; construct: GST-DNA-binding domain
Outline: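 GST-tagged yeast TFs (full-length or DNA-binding domain) were made by PURExpress in vitro transcription/translation and applied at about 100-200 nM to universal all-10-mer Agilent arrays. The arrays were made double-stranded by primer extension, on fresh or once-stripped slides. Bound protein was detected with fluorescent anti-GST, and scans were normalised with masliner. Each ungapped eight-base word, pooled with its reverse complement, received an E-score (modified Wilcoxon-Mann-Whitney statistic) from the Universal PBM Analysis Suite.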

Sequence	PBM E-score
ATAACTCA	-0.0537
TCAATTAA	0.0112
ACTCTTGA	-0.226
GGGCATAA	-0.0978
GGAGCGAC	-0.125
GAACTCTA	0.0701
CGTTGGGC	-0.0166
AGGCTGAT	-0.146
GCTCCCCC	-0.118
CCAAAAAA	-0.0541
AGGCTTAC	-0.00932
AAAAACGT	-0.0241
CGGCATAC	0.195
AAGTTGTG	-0.198
CACACGAC	-0.138
AACAAATA	0.125
ATTACACG	0.0921
AGGGTAAG	0.0949
AGATGAAT	-0.168
TAAACGCA	-0.151
CCGGACTA	0.2
TCCCACGA	-0.0411
GCTAGGTA	-0.0267
AGGACGGG	0.0687
TAGCGTAA	-0.0165

Sequence	PBM E-score
CCTGACGA	-0.271
CGCCCTTC	0.0181
CTAGCCTA	-0.282
GGTACAAC	0.00245
CTCTGCGC	-0.104
AGTATTGC	0.0903
CCAGGCAC	-0.113
CCCTCTCG	0.0314
CTCATTGC	-0.18
GAATTTCA	-0.0427
ATTAGATA	-0.215
AGCCTCCA	-0.234
CAACCAAC	-0.164
TTCGGAAA	0.474
GGTGTCAA	-0.0888
GAACTTCA	0.017
GAGATAGC	-0.116
AGTGCCGA	0.423
CCCGCTAG	0.0908
CAGAGTTC	-0.0589
CGCCTCAC	0.041
GCTAAAAC	-0.0999
ATTAGGGC	-0.225
AATATCCC	0.247
ATTGAACC	-0.107

Sequence	PBM E-score
CAAATGCG	-0.127
AACGTCAG	-0.155
CATCGTTC	-0.0179
AGCCGCAC	0.132
AACGCTGT	-0.113
GGGTCAAC	0.189
TGAGGGCA	-0.155
ACATCTAC	0.0158
GGGTTCGA	-0.118
TCCTACCA	-0.269
ATTCCTTG	-0.121
GCAGTTAA	-0.126
GAAGGAAA	-0.075
AGTCGGTC	0.181
CGGTCTTA	0.0277
AATGTTAC	0.114
AGCTTCTC	-0.0745
GTCACGAA	-0.00117
CGGACAAA	0.226
GGTGGCGA	-0.0406
CACATACC	-0.0174
GAACTTAC	0.0425
AGCAAAAT	0.0589
CGTGGGCC	0.0128
CTGGACGA	-0.261

Sequence	PBM E-score
CGGAACAA	0.444
AAAACGGC	0.149
CTCTGGCA	-0.147
CTTTTACC	0.13
TAAGATAA	-0.0966
CTGTTGTC	-0.0287
AATCAGCC	0.0593
TTCTTCAA	-0.0558
AGGGTACA	-0.149
ACAGGGTC	-0.0379
ATCTTGAA	-0.186
GTTTATGA	-0.0515
CGTCTTAA	-0.187
CGATGTGA	-0.0578
ATACCTGG	-0.14
CAGTGAGA	-0.161
AACGTTGT	-0.145
CGAAGACG	0.0931
TCCAAACA	-0.145
CGCTTTTC	-0.0421
GACAAGAC	0.151
CTTCCTTC	-0.0935
CATACTTC	-0.0611
AGAAAGAT	-0.224
GTAACCAC	-0.231

Sequence	PBM E-score
TGCGGCAA	0.0334
ACGGTAGT	0.0902
AAGGTGTC	-0.0281
GCCCACAC	-0.105
AATAGGGG	0.0926
CGCAGGAG	-0.0827
CTATGCTC	-0.32
AAACGCTG	-0.212
ATTAGGGA	-0.0612
CCTTCTAA	-0.338
ATATCATG	-0.0971
CGAATACA	0.103
ATTATTAC	0.0199
CATGAATG	-0.226
CCTAGGGC	-0.153
ATGTGCAG	-0.166
GCTGGCTA	-0.267
ATATGTAG	-0.254
AAAACACG	-0.005
CCAGCGGG	0.124
ATGCAGAA	-0.165
GCAGTAAA	0.114
AGCTTAAC	-0.127
AGTTTTCC	0.229
CACACAAA	-0.0727

Sequence	PBM E-score
GTGCGCGA	0.0352
CAGTTCAC	-0.0842
AGAGGCAC	-0.224
ATTAACAG	-0.238
ATATTGTG	-0.134
GTCAGCTA	-0.259
GTATGGCA	-0.209
CAGTATCA	-0.139
ATGCCACG	-0.0957
CACTTGTA	-0.223
ACTTTTCG	0.0867
TTAGAAAA	0.117
CTGAGCTA	-0.245
TAACTGAA	-0.265
GCAGTGCA	-0.0523
ACCACGGA	0.286
CGCTGATA	-0.123
ACGGCTGG	-0.026
CAGAGTAG	-0.264
ATGACATG	-0.269
AGGTACGG	0.252
ACAGGCGG	0.134
GACAGTCC	-0.021
ACGACAAG	-0.144
AAAGTGAC	-0.123

Sequence	PBM E-score
CCTAGTCA	-0.367
CTTCGAGA	-0.257
GTCAAAAA	-0.141
GCTTGGCA	-0.31
TAAATATA	0.0348
ACTGGCCT	-0.0527
CATGTGTC	-0.155
CCCAGAGA	-0.153
AATATACC	0.0722
ACCATACC	0.044
ATGAACCA	-0.00287
ATCAGCAT	-0.267
AAAAGTTT	-0.121
ACGAGGAG	-0.349
AAGTGGGC	-0.0583
CGACCTCA	0.0302
CCCTACGA	-0.221
TGCGAGAA	-0.132
CCTACTAA	-0.0833
CGAGCCCG	0.149
ACTTATCG	0.134
CCGGTTCC	0.347
CCGTGGAA	0.252
CCTGGCAG	-0.289
CCCTAACC	-0.0559

Sequence	PBM E-score
ACTGCAAA	-0.125
TATGCTGA	-0.177
AGACTCGG	0.344
ACTCCTAC	-0.203
GCATAAGC	-0.152
CTGCCCAC	-0.202
ATACCAAG	-0.121
ACCACTCT	-0.177
ACGTCGAC	-0.0974
CAACATTA	-0.135
ATGGCGCC	0.0518
AGACGGCA	0.0327
CCGATCCG	0.445
TATGTCAA	0.0756
AATCGCGA	0.0215
CCATAAGC	-0.203
AAGTCGCA	0.0407
ATACCTCG	0.0825
CCTATCGC	-0.0745
AAGCGGGC	-0.0136
GCCACAAC	-0.118
CCACAGGC	-0.236
AGAGCGCC	0.101
AGTACCGA	0.362
ACGAGCCA	-0.307

Sequence	PBM E-score
GATTGACC	0.0279
GACTGATC	-0.223
AGCCATCG	0.0272
AAGCCCGC	-0.0105
AGTCTAAT	-0.22
GATTGACA	-0.13
AGGGTCTG	-0.261
AGACATTC	-0.0662
CCAAAGAA	-0.142
CAGACCAG	-0.113
CCTGTGCA	-0.155
GGCAAGGA	-0.0044
CAGCACTG	-0.286
AAGAGAGC	-0.0244
CCGGTAAA	0.312
ACTCGACC	-0.00455
ATAGATAA	-0.0273
CACTGTAG	-0.159
CCTAACGC	0.0169
AGCTGAAT	-0.292
CATCAGTA	-0.226
CACTGTTA	-0.0754
CGTTCCTC	0.0883
AACCGAGG	0.355
ACCGCTGC	-0.0977

Sequence	PBM E-score
CATTGTAA	-0.148
AACCGCAG	0.0321
ACGACTCC	-0.153
CATCATGA	-0.119
ATAACTTA	-0.256
GAGTTGTA	-0.0447
CCCCGCCG	0.206
CGACTGAG	-0.0628
AGTGGAAT	-0.059
CATTAACA	-0.125
ATATGGTC	-0.17
CCACGCAC	0.0161
CTCGCTTA	0.0647
ATCTGCCA	-0.112
AAATTGTT	0.0532
ACAGCTGC	-0.219
ATGATTGA	-0.224
ATAACCTG	-0.134
ACCACACA	-0.0514
GGAGGGCC	-0.168
CTGACCTA	-0.22
CACATGCC	0.0149
CTTGGGGA	-0.211
ACTCGCAT	-0.0739
CCGTAAGG	-0.0631

Sequence	PBM E-score
GTTAGATA	-0.139
TGACAACA	-0.116
ACTAGGCC	-0.146
AGAGGTGG	0.0121
AGTAAAGG	0.119
CACGCGAG	-0.1
GAGCAGAC	-0.161
GGTGACGA	-0.194
CAGCTCCC	-0.0256
GAACCTCC	0.163
ATTAAACA	-0.236
AATATCTA	-0.0944
GGAACCTA	0.243
ACTGAATG	0.0782
CGCCTACG	0.0238
ATGAACGA	-0.136
TGACCAAA	-0.0981
AATAATCT	0.0237
ATTAGGCG	-0.0263
ATGACATC	-0.0123
CCCTAGGG	-0.137
CACCTCAA	-0.156
CTTGCCAA	-0.151
TTCAGGAA	-0.0828
AAAGACCA	-0.146

Sequence	PBM E-score
AAAGTAAG	-0.14
CATCGGGC	0.181
TGGATACA	-0.147
GGCGGACC	0.186
CCCGTTGA	0.0212
GCCAGCAA	-0.128
CTAAACAC	-0.142
ACGACTAA	-0.224
CACCTCAG	-0.26
CAAGGCCA	-0.182
CGTGAGGC	-0.0397
AGGGATCG	0.0754
CAGATTGC	-0.0992
ACCGCCCT	-0.16
GGCGGGAA	0.233
ACGACTAT	-0.151
CTCATCCC	-0.0322
CATCGATA	-0.0351
CGCCGACG	0.22
ACACCCCC	-0.161
GGCGCCAC	-0.0805
CAGCTTCC	0.122
GTGGGAAC	-0.102
TCCAAGCA	-0.252
CACGGTCG	-0.0595

Sequence	PBM E-score
CTGTCTAA	-0.151
TCTAGGCA	-0.0114
GATTCCGC	0.222
ATCGTAAC	0.156
ACGGTGGG	-0.054
CGGTACCG	0.378
GGCTTTTA	-0.0732
CGCGAGGA	0.0296
AAATAAGC	-0.113
ACTTGTAA	-0.204
AATATGTC	-0.172
GCTGGTCC	-0.0162
GCCAACTA	-0.262
ATTTAGTC	-0.0745
CGAAAAGC	0.0706
CCCGTGTC	0.245
CAGAGGAA	-0.245
CCATTCGC	-0.277
TGTCGTAA	-0.215
CGGTAAGC	0.212
AGCTTAAA	-0.183
AACCTATG	-0.283
GTCGCGAC	0.284
CCGCAAGC	-0.024
CACGTGCA	-0.309

Sequence	PBM E-score
CTTAGCAA	-0.144
ACTGATTC	-0.0527
GAAATTCA	0.0631
ACAAAGGC	-0.155
AATGTGCG	0.0205
AGAACATC	-0.00488
CTAACTTC	0.064
AGCTTCTG	0.0226
GGCACTGA	0.0603
AACGTGCC	-0.0293
GCTTCAAA	-0.163
GGACCTCA	-0.139
ATGAGGGC	0.0421
GCGCTTAC	0.116
AACAACAT	-0.0799
CACCCGCA	0.219
GACATAAC	0.233
CACAGAGC	-0.185
AGATTTTG	-0.0142
